Read counts are not given, so values of variants with three or more changes are uncertain.

The chains are these.
B1: CPEB3 Ribozyme (parent)
chain: UAACAGGGGGCCACAGCAGAAGCGUUCACGUCGCAGCCCCUGUCAGAUUCUGGUGAAUCUGCGAAUUCUGCUGUAUAUCUC

In the series the parent is B1. Description: self-cleavage, relative activity (ratio to wild type); higher = more cleavage; in vitro, sequencing. The essentials:
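After error-prone PCR and barcoding, CPEB3 ribozyme mutant libraries were transcribed with T7 RNA polymerase at 37°C for 5 hours, then given 15 min with DNase I before an EDTA stop, and they cleaved during both steps. Reverse transcription with template switching preceded Illumina sequencing. Relative activity divides a variant's cleaved/total read fraction by the unmutated ribozyme's. At least 5 reads were required per variant, and three batches were averaged.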
Regarding C27G C37G A45U U49A A64G A77G, the self-cleavage worked out at 0.1. As to U26C U41G U51C, the self-cleavage is 0.28. For the variant C27A C40A U49A A64G, the self-cleavage amounted to 0.17.

As to A28C G33A A57G U74A, the self-cleavage amounted to 0.15. With C27G U43C U67C C68U the figure was 0.13; with U26C U48C U51C U60A A75G, 0.04. For C27A U31C C40U U41G U51C, the self-cleavage came to 0.19. As for A28C U60C U80C, the self-cleavage is 0.13. For A28G A35U U48A G55U, the self-cleavage was determined as 0.07. The value for A28G C32U U80C was 0.23. Consider C27U U49C A56G, for which the self-cleavage stood at 0.08. With A28C U31C A64U U74C the figure was 0.12; with A28C U41C G73C, 0.5. With A28G A35U G63A the figure was 0.09; with U26C U54C A56G U69A U76C, 0.14.

On to C27A A56G U58C, for which the self-cleavage came out at 0.13. Regarding A28G A56C U78A, the self-cleavage came to 0.39. U26C U54A C71G U78C: the self-cleavage was 0.09. The value for U26C U43A A45G was 0.24. In the case of A28G A35G U66C, the self-cleavage came out at 0.64. Turning to U26C U51G U78C, the self-cleavage turned out to be 0.3.

For the variant U26C U41A A75U, the self-cleavage was determined as 0.06. In the case of A28C U43C C44U A56G, the self-cleavage amounted to 0.07.

In the case of A28C U31G U78C, the self-cleavage is 0.14. Take U26G U72C U78A: the self-cleavage worked out at 0.1.

As for A28G C29U A45U A47G, the self-cleavage is 0.19. As for U26C U49G U54A, the self-cleavage is 0.15.

U26C U58A C59A U80G: the self-cleavage was found to be 0.16. Consider A28G A47G U49C U69A, for which the self-cleavage is 0.14.

For U26C U58G U72C A77U, the self-cleavage turned out to be 0.15. As to A28G C32U U74C, the self-cleavage amounted to 0.17. Regarding C27A A45G U58A U80A, the self-cleavage came to 0.2. As to A28G A56U U60C U66C U72A U76A, the self-cleavage amounted to 0.04.

For C27A U60C U74A, the self-cleavage stood at 0.29. With A28G A65U U72C, the self-cleavage amounted to 0.16.

Turning to U26C U48C A57U G63A U74A, the self-cleavage worked out at 0.18. As to A28G C34U C40U A65G U69C, the self-cleavage turned out to be 0.13. U26C U51C G52U: the self-cleavage came out at 0.41.

On to U26C U51C A56G, for which the self-cleavage amounted to 0.19. For U26C U41A U60C U72C, the self-cleavage turned out to be 0.21. Regarding U26C U41A U54C U67A, the self-cleavage is 0.16. As for A28G A47U U51A U78C, the self-cleavage was 0.13. Take A28G A64G A65C: the self-cleavage was 0.16. As for U26C U41C U51A, the self-cleavage came out at 0.45. For the variant U26C U41C U51C, the self-cleavage was 0.38.

For U26C U41C U48C A56U U60C A65G, the self-cleavage was found to be 0.04. With U26C U31C G36A C50U U54C, the self-cleavage was found to be 0.06. A28C U31A A64G U69C: the self-cleavage was 0.46. C27A U54A U69C A75U: the self-cleavage stood at 0.19. Regarding A28C C62U C71A U80C, the self-cleavage amounted to 0.07. In the case of U26C U43C U48A A77U, the self-cleavage turned out to be 0.36.

Turning to A28G A47G U54A U80C, the self-cleavage is 0.5. Turning to U26C U51A U69C U76C, the self-cleavage amounted to 0.22. As to A28C U49C A56U A65G, the self-cleavage worked out at 0.13. Consider A28C U31G A35U U51C U60A U67C, for which the self-cleavage worked out at 0.11. With A28G A45G A77U, the self-cleavage came to 0.54. Turning to U26C U76C U80A, the self-cleavage is 0.6.

On to C27U G61C A64G, for which the self-cleavage stood at 0.09. As to U26G C44U A56G, the self-cleavage turned out to be 0.24. Regarding A28G A35G U69C U80A, the self-cleavage was determined as 0.51. Regarding C27U U49C U60C, the self-cleavage turned out to be 0.21. On to C27A A45C G70U U78C, for which the self-cleavage came out at 0.13. In the case of A28G A56G U58C A64U U78C, the self-cleavage was determined as 0.07. The value for A28G A35U U41C A56G was 0.26; that for A28G A35G U51A was 1.19. Take A28G A35G U51G: the self-cleavage was 1.22. As to U26C U48C A64U U66C, the self-cleavage is 0.19. For the variant C27U U43C G61C G70C, the self-cleavage came to 0.1.

Regarding C27U U43C A56G, the self-cleavage came out at 0.13. With U26C U43C U69A A77U the figure was 0.35; with C27G U58C U69A U72C A75U U80C, 0.06.

On to U26C U43C U69C U78C, for which the self-cleavage worked out at 0.12. In the case of U26G U69C U72C, the self-cleavage was 0.04.

For the variant U26C U31C U41A A47G G53A U72A C81U, the self-cleavage came to 0.06. A28C A45G U48C G61A G63A: the self-cleavage came to 0.14. With A28G C34U A35U U60C A64G, the self-cleavage is 0.1. A28G A64G A65G U69A U76C: the self-cleavage worked out at 0.11. The value for C27U G30A U80C was 0.47; that for C27A A47U U58A A65G was 0.13; that for A28G A35G A47G U67A U69C was 0.36. Regarding U26C U48A U80C, the self-cleavage worked out at 0.32. Take U26C U41A U69C U76C U80C: the self-cleavage was 0.07. Consider U26C U41A A56G, for which the self-cleavage stood at 0.47. On to A28G A45G A64U U66A, for which the self-cleavage is 0.21.

Consider A28C A35U U72C, for which the self-cleavage was 0.24. In the case of A28G C32U U49C U66C, the self-cleavage was 0.07. Regarding C27G A56U U58A, the self-cleavage amounted to 0.04. As for C27U C39U U41C A57U U66C, the self-cleavage was determined as 0.1. For the variant U26C U31C C37U G46U U67A A75G, the self-cleavage is 0.1. In the case of U26C U41C U48C U76A A77U, the self-cleavage is 0.3.

As to A28G A45G U67C U69A, the self-cleavage turned out to be 0.14. Consider C27A A47U U48A A65G U74A, for which the self-cleavage came out at 0.05. Consider U26C U31C U48C, for which the self-cleavage turned out to be 0.29.

Turning to U26C U67G C79A, the self-cleavage amounted to 0.12. Regarding U26C U72C U78C, the self-cleavage amounted to 0.47. On to U26C U48C U54A U60A, for which the self-cleavage was determined as 0.2. Turning to A28C U66C G73U U80A, the self-cleavage came out at 0.12. For A28G A35U U41C A65G, the self-cleavage came out at 0.16. With C27U A57G U80A the figure was 0.32. As for A28G A56U U80A, the self-cleavage turned out to be 0.2. For the variant U26C U60C A77G, the self-cleavage was determined as 0.33. U26C U51A U60C: the self-cleavage came out at 0.12. Regarding A28G C32U A64U, the self-cleavage was found to be 0.19. For U26C U41G A47G G55A, the self-cleavage worked out at 0.08. Turning to C27U G33A A35G A57G U58C U60C, the self-cleavage is 0.12. Turning to C27G U69C U76C U80C, the self-cleavage is 0.02. In the case of U26C U49A U60C, the self-cleavage was 0.15. As to A28G A35G A47G U54C, the self-cleavage came out at 1.18. C27A U69C A75U: the self-cleavage was found to be 0.13. Regarding A28C C40G U43C A57U A64G U72C, the self-cleavage was determined as 0.14. Take U26C U69A U72C: the self-cleavage was determined as 0.33. With U26C U31C A75G the figure was 0.31. In the case of A28G A45G U60A U69C U78G, the self-cleavage was 0.09.

As for A28G A57G U60C A64G, the self-cleavage was determined as 0.17. Turning to C27U C44A A57G, the self-cleavage amounted to 0.14. Regarding U26C U69C U80C, the self-cleavage amounted to 0.22. Consider C27U U69A U72A, for which the self-cleavage was 0.05.

Consider A28C U51C U69A U78C, for which the self-cleavage was 0.04. On to A28G A56U U66C, for which the self-cleavage turned out to be 0.13. With A28G A35G G70A, the self-cleavage amounted to 0.53. U26C U69C U72C: the self-cleavage came to 0.35. Regarding C27A U41A A45C A56G U60G, the self-cleavage turned out to be 0.08.

In the case of C27U A47G U51C A56U A57G, the self-cleavage was determined as 0.13. In the case of A28G A45U U51C U80C, the self-cleavage was 0.09. The value for U26C U41A U72C was 0.15; that for A28C A45U A64U was 0.14; that for U26G C71U U74A was 0.25. On to U26C U43G A57U C71A U74G, for which the self-cleavage is 0.15. With U26C U48A U69C the figure was 0.41; with C27U U48C U80A, 0.09. With U26C U54C G73U, the self-cleavage amounted to 0.87.

With U26C U54C C62U C68A A75G U80C, the self-cleavage worked out at 0.06.

For A28G A56U U66C U78C, the self-cleavage was 0.13. As for U26C U66C A75G, the self-cleavage turned out to be 0.37.

As for A28G A35G C40U A65U, the self-cleavage turned out to be 0.21. The value for A28C A65G U80C was 0.58; that for U26G A64G U72G U78A was 0.17. For the variant A28G C32A G63U, the self-cleavage is 0.2. For the variant U26G U41C U69C, the self-cleavage worked out at 0.08.

On to U26C U43C A45G U51C A57G A65G, for which the self-cleavage came out at 0.35. Take C27A U69A A75G U80C: the self-cleavage amounted to 0.08.

Regarding A28G A35U U43C U60C, the self-cleavage came to 0.07. As to A28G A35U U78A U80A, the self-cleavage is 0.21. With A28G A56G U74A U80C, the self-cleavage was determined as 0.96. As for A28G C34G U72C U78G, the self-cleavage was 0.19. Regarding A28G A64G U74C A75U U78C, the self-cleavage was determined as 0.8. The value for A28G A35G U51C U74C U80C was 1.18; that for A28G A45G U48C U51C U60A A65U was 0.15. C27U A28U A56G: the self-cleavage came to 0.19.

Consider C27U U54A C62U A65G, for which the self-cleavage came to 0.16. Turning to A28C A45U U60C G63C, the self-cleavage came out at 0.14.

On to C27U U49C G53A A57G, for which the self-cleavage is 0.16. On to U26C U49C U72C, for which the self-cleavage is 0.19. In the case of C27A C32U C37G U67C U72A U80C, the self-cleavage came to 0.12. As to A28G A45U U67A, the self-cleavage came to 0.08.

For the variant C27A U74G U78A, the self-cleavage is 0.19.

For U26C U41A A56C U76C, the self-cleavage amounted to 0.19.

With C27A C39U C44U A45G, the self-cleavage was 0.13.

Regarding C27G U43C U58C G63U, the self-cleavage amounted to 0.18. With C27U U60C U80C the figure was 0.23; with A28G C32G U58C U67C, 0.08; with U26G G30A U72A, 0.05. The value for U26C U54C A64G C71U was 0.11; that for U26C U41A U54A C59A A65G was 0.08; that for U26C U48C U67C U72A was 0.14. Consider A28C G30A A45U U51C U54C U80C, for which the self-cleavage worked out at 0.06.

In the case of A28G A64G U72C, the self-cleavage was 0.19.

(Values after the RNAGym collection of RNA variant scans (doi:10.1093/nar/gkz1192).)
